About 6,900 (2%) of roughly 340,000 compounds were called active. Cut-off read from the data, not from the text of the source: active = inhibition above about 30%; inactive = below that, where a call was filed. This is a selection; strong and weak results do not stand in their true shares. The source gives no active or inactive call for entries shown without one.

This assay concerns the target D(2) dopamine receptor (Homo sapiens) (UniProt P14416). Kind of assay: HTS Assay for Allosteric Antagonists of the Human D2 Dopamine Receptor: Primary Screen for Antagonists. Note: 0% is about no effect. As to conditions: HEK293 TREx D2 cells, calcium flux, dopamine EC80; at 10 µM; stronger effect = higher value. In outline: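 Calcium flux kinetic readout in an inducible HEK293 TREx D2 line plated overnight at 30 C. After 180 s compound exposure, an EC80 dopamine challenge follows with another 180 s kinetic read to detect antagonism.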
Chain of UniProt P14416 (P14416 whole entry, looked up): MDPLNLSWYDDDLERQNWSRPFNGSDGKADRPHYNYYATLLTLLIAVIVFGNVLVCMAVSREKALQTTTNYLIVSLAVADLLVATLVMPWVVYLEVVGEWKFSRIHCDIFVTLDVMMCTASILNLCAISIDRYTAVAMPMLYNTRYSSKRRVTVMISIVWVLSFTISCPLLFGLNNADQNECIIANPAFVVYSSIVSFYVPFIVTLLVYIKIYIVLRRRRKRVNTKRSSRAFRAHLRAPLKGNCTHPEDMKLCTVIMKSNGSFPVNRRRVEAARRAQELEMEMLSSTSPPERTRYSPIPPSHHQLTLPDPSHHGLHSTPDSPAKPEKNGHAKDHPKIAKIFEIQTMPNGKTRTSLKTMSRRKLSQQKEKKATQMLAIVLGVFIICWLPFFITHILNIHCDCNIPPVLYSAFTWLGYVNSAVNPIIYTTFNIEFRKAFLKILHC
The term inhibition denotes the change of the read-out against control, counted positive when it falls. In the case of `CCOc1cc(CNc2ccc(C(=O)O)cc2)ccc1OCc1ccccc1`, the inhibition is -14%.
`CCc1ccccc1NC(=S)NC1CC2CCC(C1)N2Cc1ccc(F)cc1` (configuration not stated): the inhibition is active: 78.3%.
With `CC1CCC(Nc2ncnc3onc(-c4ccc(F)cc4)c23)CC1` (configuration not stated), the inhibition is -0.234%.
Take `O=C(O)c1c(-c2ccccc2)oc2ccc(OCc3ccc(Cl)c(Cl)c3)cc12`: the inhibition was -7.76%.
As for `CCN1CCc2c(sc(N)c2C(N)=O)C1`, the figure is active: 38%; as for `Cc1cc(C)cc(NS(=O)(=O)c2ccc(-n3cccn3)cc2)c1`, -6.76%.
As for `O=C(COc1ccccc1)N1CCN(c2ccccc2)CC1`, the figure is active: 30.1%; as for `Cn1cc(CCC(=O)NCc2ccc(Cl)cc2)c2ccccc21`, 8.33%.
As for `COCCCNC(=O)c1oc2c(c1C)-c1nn(Cc3ccc(Cl)cc3)cc1CC2`, the figure is -25.6%; as for `COc1ccc(-c2cccc(NS(=O)(=O)c3ccc(C)s3)c2)nn1`, 0.857%; as for `Cc1ccc(CSCCNC(=O)c2ccc(C)cc2)cc1`, active: 31.9%.
With `COc1cccc(N2C(=O)CSC23C(=O)N(Cc2ccccc2)c2ccccc23)c1` (configuration not stated), the inhibition is -2.73%.
As for `Cn1ccnc1SCC(=O)Nc1ccc(Cl)cn1`, the figure is active: 30.8%; as for `Cc1ccc(C)c(CSc2cn(CC(=O)N3CCCCCC3)c3ccccc23)c1`, 0.925%.
As for `CCCCS(=O)(=O)N1C2=NC(C(=O)OC)=C(C(=O)OC)[C@@H]3N(C)c4ccc(OC)cc4[C@]23C[C@H]1C(=O)OC`, the inhibition was active: 34.2%.
As for `COc1ccc(-c2csc3nc(-c4ccc(F)cc4)oc(=O)c23)cc1`, the figure is 8.03%.
As for `COc1ccc(NC(=O)CCCc2nnc3n(CCC(C)C)c(=O)c4sccc4n23)c(OC)c1`, the figure is -5.2%.
With `COCCNC(=O)c1ccc(-n2c(-c3ccccc3)cc3c2CCCCC3)cc1`, the inhibition was found to be 8.05%.
Regarding `COc1ccccc1NC(=O)CN1CCN(c2ccccc2)CC1`, the inhibition was active: 39.1%.
For the compound `COc1ccc(C(=O)/C=C/c2cn(CC(O)CN(CC(C)C)CC(C)C)c3ccccc23)cc1` (configuration not stated), the inhibition was -6.15%.
As for `CCCC(=O)N(c1ccc2oc(C)c(C(C)=O)c2c1)S(=O)(=O)c1ccc(C)cc1`, the figure is 0.931%; as for `CCOC(=O)c1nc(N2CCN(c3ccc(F)cc3)CC2)c2c(C)noc2n1`, 0.274%.
With `CCn1c(=O)n(-c2ccc(F)c(Cl)c2)c(=O)c2c3c(sc21)CN(C(C)=O)CC3`, the inhibition was 1.75%.
`COc1cccc(C(=O)Nc2ccc(-c3nc4ccccc4s3)cc2Cl)c1`: the inhibition is -11.1%.
Consider `CCS(=O)(=O)N1CCC(n2c(C)nc3cccnc32)CC1`, for which the inhibition was 7.32%.
For `Cc1ccc(Cl)c(NC(=O)Nc2csc3c2CCCC3)c1`, the inhibition is -8.8%.
Regarding `COc1cc2oc(=O)c(CC(=O)N3CCCCC3)c(C)c2cc1OC`, the inhibition is -13.1%.
`CC(C(=O)NCC1CCCCC1)N1CCc2ccccc2C1` (configuration not stated): the inhibition was active: 54.4%.
As for `COc1ccc(OC)c(CCNC(=O)c2ccc(NC3=NC4CS(=O)(=O)CC4S3)cc2)c1` (configuration not stated), the figure is active: 34.5%; as for `Cc1ccc(S(=O)(=O)c2nc(-c3ccccc3Cl)oc2N2CCCCCC2)cc1`, -13.2%; as for `CCc1ccc(NC(=O)C(=O)NCC(c2ccc3c(c2)OCO3)N2CCOCC2)cc1` (configuration not stated), 3.6%.
As for `COc1ccc(-c2cc(C(=O)Nc3ccn(Cc4ccc(C)cc4)n3)no2)cc1OC`, the figure is -6.09%; as for `COc1ccc(-c2noc(-c3ccc(NCc4cccnc4)c([N+](=O)[O-])c3)n2)cc1`, 8.75%; as for `CCC(=O)N1CCc2cc(Br)cc(S(=O)(=O)CCC(=O)Nc3ccc(C)c(C)c3)c21`, 0.266%.
As for `O=C(NCc1ccccc1Cl)c1cnc2sc(N3CCOCC3)nn2c1=O`, the figure is -5.59%.
On to `COC(=O)CNc1nc(Cl)nc(N2CCC(C)CC2)n1`, for which the inhibition was active: 35.9%.
On to `CCn1cc(C(=O)NCCCN(CC(C)C)CC(C)C)c(=O)c2cc(S(=O)(=O)N(C)C3CCCCC3)ccc21`, for which the inhibition is -3.88%.
As for `COc1ccc(NC(=O)CCc2nnc3n(C)c(=O)c4sccc4n23)cc1Cl`, the figure is -3.71%; as for `COc1cccc(N2C(=O)N(Cc3ccc(C#N)cc3)c3ccccc3S2(=O)=O)c1`, -3.6%.
In the case of `CCc1ccccc1NC(=O)Cn1c(=O)n(CC2CCC(C(=O)NCCc3ccccc3)CC2)c(=O)c2ccccc21` (configuration not stated), the inhibition stood at 11.7%.
For `O=S(=O)(c1ccccc1F)N1CCC(Oc2ccc(-n3cnnn3)cc2)CC1`, the inhibition came to 0.147%.
As for `COc1cccc(NS(=O)(=O)c2ccc3[nH]cc(C(=O)NCCc4ccccc4)c(=O)c3c2)c1`, the figure is -6.17%; as for `CN(Cc1ccccc1)C(=O)CSc1nc2ccsc2c(=O)n1-c1ccc(F)cc1`, -4.02%; as for `O=C(NCc1ccc(Cl)cc1)C1CCCN(c2cnccn2)C1` (configuration not stated), active: 36.2%.
With `COc1cccc(CNc2nc3c(-c4ccccc4)nnn3c3ccccc23)c1`, the inhibition was 1.82%.
As for `COc1ccc(CCNC(=O)Cn2c(=O)n(-c3cc(OC)c(OC)c(OC)c3)c(=O)c3ccccc32)cc1OC`, the figure is 2.47%.
On to `Cc1ccc2oc(=O)c3cnn(CC(=O)N4CCN(c5cc(Cl)ccc5C)CC4)c3c2c1`, for which the inhibition came out at 15.7%.
As for `Cc1ccccc1C(OCCN(C)C)C1CCCCC1` (configuration not stated), the figure is active: 86.8%; as for `CCOc1ccc(NC(=O)c2cc(S(=O)(=O)N3CCCCC3)c[nH]2)cc1`, 5.33%.
On to `O=C(CC1SC(N2CCCCC2)=NC1=O)Nc1cccc(C(F)(F)F)c1` (configuration not stated), for which the inhibition is active: 78.8%.
As for `CCc1ccccc1N(C)C(=O)c1cnc(N2CCOCC2)c2ccccc12`, the figure is -9.63%.
As to `Cc1ccc(Cc2nc3ccccc3nc2SCC(=O)NCc2ccc(F)cc2)cc1`, the inhibition is -2.94%.
On to `Cc1cc(Br)ccc1NC(=O)c1cn(C2CCCC2)c(=O)c2c1c1ccccc1n2C`, for which the inhibition worked out at 5.86%.
As for `Cc1cccc(C(=O)N2CCc3cc(CNC(=O)Cc4ccc(F)cc4)ccc32)c1`, the figure is -14.1%.
As to `COc1ccc(CCNc2ncnc3c2c(-c2ccccc2)cn3-c2ccc(F)cc2)cc1OC`, the inhibition is -0.437%.
Take `COc1ccccc1N1CCN(Cc2cc3c(cc2[N+](=O)[O-])OCO3)CC1`: the inhibition was active: 51.6%.
As for `CCC(=O)C1=C(c2cccc([N+](=O)[O-])c2)N(C(=O)CC)n2c(nnc2-c2ccccc2)S1`, the figure is 22.4%.
Turning to `CCCCNc1nc(Oc2ccc(OCC(N)=O)nn2)nc(N2CCOCC2)n1`, the inhibition worked out at 3.32%.
Consider `CCOc1cc(C2c3c(oc4ccc(F)cc4c3=O)C(=O)N2Cc2ccco2)ccc1O` (configuration not stated), for which the inhibition came out at 4.45%.
For `Cc1ccc(-n2c(SCC(=O)Nc3ccc4c(c3)OCO4)nc3c([nH]c4ccccc43)c2=O)cc1`, the inhibition is -6.11%.
Consider `CCN(C(=O)Cn1cc(S(=O)(=O)Cc2ccccc2Cl)c2ccccc21)c1ccccc1`, for which the inhibition is -0.607%.
As for `Cc1ccc(C)c(N2CCN(C(=O)Cn3c(-c4cccs4)cc4ccccc43)CC2)c1`, the figure is 11.3%.

Source of the values: PubChem BioAssay AID485344 (National Center for Advancing Translational Sciences (NCATS), 2010).
